Experimental data reported in PubChem BioAssay AID504332 (National Center for Advancing Translational Sciences (NCATS), 2011).
Hit rate of the full screen: of about 350,000 compounds, about 31,000 (8.9%) were called active. The inconclusive results got no clear call from the source; some entries with a clear call stand among them for comparison. Calls follow the shape of the dose curve; as a rule, active = well fitted inhibition curve with a large enough effect; inconclusive = small, poorly fitted or top-dose-only effect; inactive = no such curve, though single readings can be large or run the other way. Where the call is inconclusive, the potency comes from a doubtful curve fit. Some structures have more than one record in an assay (separate samples or runs), and their calls can disagree.

The molecules below were run against Histone-lysine N-methyltransferase EHMT2 (Homo sapiens) (UniProt Q96KQ7) (assay: qHTS Assay for Inhibitors of Histone Lysine Methyltransferase G9a). Conditions: G9a H3K9 monomethylation, AlphaScreen, 2 h; activity, negative = inhibition: at 59 µM (top of the series) unless noted.
UniProt Q96KQ7, sequence (Q96KQ7 whole entry, looked up): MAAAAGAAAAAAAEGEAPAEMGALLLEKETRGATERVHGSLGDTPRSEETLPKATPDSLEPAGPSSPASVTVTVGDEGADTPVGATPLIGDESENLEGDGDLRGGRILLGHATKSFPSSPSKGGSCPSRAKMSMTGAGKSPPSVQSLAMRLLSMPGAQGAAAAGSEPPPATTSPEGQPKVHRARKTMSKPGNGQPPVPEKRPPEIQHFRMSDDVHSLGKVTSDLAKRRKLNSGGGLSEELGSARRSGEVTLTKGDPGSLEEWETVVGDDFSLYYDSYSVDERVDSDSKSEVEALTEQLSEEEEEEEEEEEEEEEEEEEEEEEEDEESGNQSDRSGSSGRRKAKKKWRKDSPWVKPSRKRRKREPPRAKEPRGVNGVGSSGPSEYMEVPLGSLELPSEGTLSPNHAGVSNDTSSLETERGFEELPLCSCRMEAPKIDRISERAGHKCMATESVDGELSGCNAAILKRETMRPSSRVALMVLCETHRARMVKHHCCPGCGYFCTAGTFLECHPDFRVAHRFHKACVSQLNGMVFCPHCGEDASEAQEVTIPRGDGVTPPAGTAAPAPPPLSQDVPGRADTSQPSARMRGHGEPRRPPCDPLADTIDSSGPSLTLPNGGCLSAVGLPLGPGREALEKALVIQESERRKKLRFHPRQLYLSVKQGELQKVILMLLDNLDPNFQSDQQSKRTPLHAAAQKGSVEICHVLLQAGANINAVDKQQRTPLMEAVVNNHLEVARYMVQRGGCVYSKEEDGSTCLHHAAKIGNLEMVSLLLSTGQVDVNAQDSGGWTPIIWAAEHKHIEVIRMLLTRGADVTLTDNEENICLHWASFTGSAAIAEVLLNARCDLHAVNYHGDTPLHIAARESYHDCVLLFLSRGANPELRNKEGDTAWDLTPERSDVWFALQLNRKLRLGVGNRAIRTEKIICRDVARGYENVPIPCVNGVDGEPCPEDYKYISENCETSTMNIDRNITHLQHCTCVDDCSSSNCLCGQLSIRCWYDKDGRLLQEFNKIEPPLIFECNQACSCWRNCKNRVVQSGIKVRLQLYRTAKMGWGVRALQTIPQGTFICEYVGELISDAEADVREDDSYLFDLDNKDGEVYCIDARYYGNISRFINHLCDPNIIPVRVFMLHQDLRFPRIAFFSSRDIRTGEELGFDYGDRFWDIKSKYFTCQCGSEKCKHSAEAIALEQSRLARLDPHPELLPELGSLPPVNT
In short: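 Readings reflect AlphaScreen signal from monomethyl-H3K9 antibody detection. HMT at 20 nM; substrate b-H3K9 500 nM; cofactor SAM 20 uM; 2 h RT reaction; compounds tested as titrations in qHTS with 15 min preincubation.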
% is scaled to controls: 0 for no effect and ±100 for the full control effect; potency is read from the fitted curve at half-maximal effect; tags tell the direction and shape of the fitted curve.
Also: nearly all actives have a fitted effect of over 75% in size.

| Compound | Potency | activity, negative = inhibition |
| --- | --- | --- |
| FC(F)(F)c1ccc2c(c1)C1C=CCC1C(c1ccncc1)N2 (configuration not stated) | inconclusive: 20 µM [inhibitor, partial curve, poor fit] | – |
| COc1ccc(N2C(=O)CS(=O)(=O)C23C(=O)N(Cc2c(F)cccc2Cl)c2ccccc23)cc1 (configuration not stated) | inactive | – |
| Cc1ccc(NC(=O)c2nc(S(=O)(=O)Cc3ccccc3)ncc2Cl)cc1 | inconclusive: 50.1 µM [inhibitor, partial curve, poor fit] | – |
| Cc1c(N=Cc2ccc(-c3ccc(Cl)cc3)o2)c(=O)n(-c2ccccc2)n1C | inactive | – |
| Cc1cccc(OCC(=O)Nc2ccc3oc(=O)ccc3c2)c1C | active: 50.1 µM | – |
| CCn1ncc(C2=NOC(C(=O)N3CCN(c4ccccc4)CC3)C2)c1C (configuration not stated) | inconclusive: 79.4 µM [inhibitor, partial curve, poor fit] | – |
| O=C(CCN1C(=O)/C(=C/c2ccccc2F)SC1=S)NCCCN1CCOCC1 | inconclusive: 89.1 µM [inhibitor, single point] | – |
| CC(C)CCNC(=O)c1cc(Sc2ccc(F)cc2F)nc2ccccc12 | inactive | – |
| Cc1nnc(N2C(=O)C(=O)/C(=C(/O)c3ccc4c(c3)CC(C)O4)C2c2ccccc2F)s1 (configuration not stated) | inconclusive: 79.4 µM [inhibitor, single point] | – |
| O=c1nc2cccc3c2=c(/c1=C(\O)c1ccccc1)c1ccccc1c3=O | inconclusive: 22.4 µM [inhibitor, partial curve, poor fit] | – |
| COCCn1c(C)cc(C2=NNC(=Nc3ccccc3F)SC2)c1C | active: 7.94 µM | – |
| COc1ccc(OCCN2CCN(C(=O)c3ccc(OC(F)F)c(OC)c3)CC2)cc1 | inactive | – |
| Cc1cc(/C=C2/NC(=O)N(Cc3ccccc3F)C2=O)c(C)n1C(C)C | inconclusive: 35.5 µM [inhibitor, single point] | – |
| CNc1nc(Nc2ccc(C(C)=O)cc2)nc(OC(C(F)(F)F)C(F)(F)F)n1 | inconclusive: 89.1 µM [inhibitor, partial curve, poor fit] | – |
| Cc1ccccc1OCCNc1ccc(C(F)(F)F)cc1[N+](=O)[O-] | – | inconclusive: -64.7% [inhibitor] |
| CC(C)Cc1nc(NCCN2CCOCC2)c(C#N)c2c1COC(C)(C)C2 | inconclusive: 25.1 µM [inhibitor, single point] | – |
| Cc1cc(NC(=O)CSC2=NS(=O)(=O)c3cc(F)ccc3N2)no1 | inactive | – |
| O=C1c2cccc3c([N+](=O)[O-])ccc(c23)C(=O)N1c1nccs1 | inconclusive: 25.1 µM [inhibitor, partial curve, poor fit] | – |
| COc1cccc(CC(=O)Nc2ccc3c(c2)OC2(CCCC2)O3)c1 | – | inactive: -4.28% [at 12.7 µM] |
| CS(=O)(=O)N(CC(=O)N1CCN(c2ccccc2F)CC1)c1ccc2c(c1)OCCO2 | inconclusive: 25.1 µM [inhibitor, partial curve, poor fit] | – |
| Cc1cc(C)c(S(=O)(=O)Nc2ccc(N(C)C)cc2)c(C)c1-n1cnnn1 | active: 3.55 µM | – |
| COc1ccc(NC(=O)C2=C(C)Nc3ncnn3C2c2ccccn2)cc1 (configuration not stated) | inconclusive: 31.6 µM [inhibitor, single point] | – |
| N#Cc1cccc(-c2nnc(SCc3ccccc3C#N)o2)c1 | inconclusive: 0.1 µM [inhibitor, full curve, poor fit] | – |

| Compound | Potency | activity, negative = inhibition |
| --- | --- | --- |
| CCCCn1cc(S(=O)(=O)c2ccccc2)c(=O)c2cc(F)c(N3CCC(C)CC3)cc21 | inactive | – |
| COc1ccc(-c2nn(-c3ccccc3)cc2/C=N/NC(N)=S)cc1OC | inconclusive: 25.1 µM [inhibitor, single point] | – |
| CC(=O)Nc1ccc(SCc2csc(C)n2)cc1 | inconclusive: 89.1 µM [inhibitor, partial curve, poor fit] | – |
| CCCn1nc(C(=O)OCC(=O)Nc2ncc(Cl)c(C)c2Cl)c2ccccc2c1=O | inconclusive: 70.8 µM [inhibitor, single point] | – |
| O=C(NCCc1ccccc1)c1ccc(CSc2nc3ccncc3n2Cc2cccc(F)c2)cc1 | inconclusive: 6.31 µM [inhibitor, full curve, poor fit] | – |
| COc1cc(NC(=O)CSc2ncnc3sc4c(c23)CCCC4)c(C(=O)O)cc1OC | inconclusive: 39.8 µM [inhibitor, single point] | – |
| Cc1cc(C(=O)Nc2ccc(C)c(S(=O)(=O)N3CCOCC3)c2)c2ccccc2n1 | inconclusive: 4.47 µM [inhibitor, single point] | – |
| O=C(O)c1ccccc1C(=O)Nc1ccc(S(=O)(=O)Nc2ccc(F)cc2)cc1 | inactive | – |
| OC(COCc1cccs1)CN1CCN(c2cccc(Cl)c2)CC1 (configuration not stated) | active: 10 µM | – |
| O=C(Nc1cccc(S(=O)(=O)N2CCCCCC2)c1)c1ccc2ccccc2n1 | inconclusive: 79.4 µM [inhibitor, single point] | – |
| CN(CC(=O)Nc1ccc(F)cc1)C(=O)c1ccc(OCc2ccccc2)cc1 | inconclusive: 89.1 µM [inhibitor, single point] | – |
| O=C(CS(=O)(=O)c1cn(CC(=O)N2CCOCC2)c2ccccc12)NCc1ccc(F)cc1 | inconclusive: 89.1 µM [inhibitor, single point] | – |
| Cc1onc(-c2ccccc2Cl)c1C(=O)NNC(=O)c1nn(C)cc1Cl | inconclusive: 28.2 µM [inhibitor, full curve, poor fit] | – |
| CC(=O)n1cc([C@H]2C=C(C(=O)N3CCN(Cc4ccccc4)CC3)O[C@@H](OCc3ccc(CO)cc3)C2)c2ccccc21 | – | inconclusive: -92.7% [inhibitor] |
| COc1cccc(C(=O)NCC(c2ccc3c(c2)OCO3)N2CCN(c3ccc(F)cc3)CC2)c1 (configuration not stated) | active: 44.7 µM | – |
| Fc1ccccc1C1c2cccn2CCN1C(=S)Nc1ccc(Br)cc1 (configuration not stated) | active: 25.1 µM | – |
| CCOC(=O)c1nnn(-c2nonc2N)c1CN(CC)CC | inconclusive: 0.1 µM [inhibitor, full curve, poor fit] | – |
| COCCn1c(N)c(C(=S)NC(=O)c2cccs2)c(=O)[nH]c1=O | inconclusive: 14.1 µM [inhibitor, single point] | – |
| Nc1nc(NCCOCCO)nc(N2CCCCCC2)c1[N+](=O)[O-] | inconclusive: 0.355 µM [inhibitor, partial curve, poor fit] | – |
| O=C(NC1CCCC1)C1CCCN1C(=O)Nc1ccccc1 (configuration not stated) | inconclusive: 89.1 µM [inhibitor, partial curve, poor fit] | – |
| O=C1CC(C(=O)Nc2ccccc2C(=O)O)C(c2ccccc2)O1 (configuration not stated) | inconclusive: 44.7 µM [inhibitor, partial curve, poor fit] | – |
| CN1C(=O)C(C)(C)c2cc(S(=O)(=O)NCC3CCC(C(=O)NC4CCCCC4)CC3)ccc21 (configuration not stated) | inactive | – |
| CCOc1ccccc1N1CC(c2nc3ccccc3n2CCCCOc2cc(C)ccc2C)CC1=O (configuration not stated) | inactive | – |

| Compound | Potency | activity, negative = inhibition |
| --- | --- | --- |
| Cc1cc2ccccc2nc1Br | inconclusive: 89.1 µM [inhibitor, single point] | – |
| Oc1cccc(C2c3[nH]c4ccccc4c3CCN2Cc2cnn(-c3ccccc3)c2)c1 (configuration not stated) | inconclusive: 70.8 µM [inhibitor, partial curve, poor fit] | – |
| CC(C)c1ccc(NC(=O)CSc2n[nH]c(=O)n2-c2cccnc2)cc1 | inconclusive: 56.2 µM [inhibitor, partial curve, poor fit] | – |
| CCn1nc(C(=O)Nc2nc3ccc(C)cc3s2)c2ccccc2c1=O | inconclusive: 25.1 µM [inhibitor, partial curve, poor fit] | – |
| COc1ccc(Cc2nnc(NC(=O)Cc3cccs3)s2)cc1OC | inconclusive: 22.4 µM [inhibitor, single point] | – |
| Cc1cc(C)nc(NC(=O)c2cccc([N+](=O)[O-])c2C)n1 | inconclusive: 2.51 µM [inhibitor, partial curve, poor fit] | – |
| CC(=O)Nc1ccc(NC(=O)c2nc(-c3ccccc3)oc2C)cc1 | inactive | – |
| O=S(=O)(c1ccc(Cl)cc1)c1nnn2c1nc(NCc1ccccc1)c1sccc12 | inactive | – |
| CCN(CC)c1ccc(CN(C(=O)c2cccs2)C2CCS(=O)(=O)C2)cc1 (configuration not stated) | active: 39.8 µM | – |
| CCOP(=O)(OCC)C(Nc1cccc(C(F)(F)F)c1)c1ccc(Br)cc1 (configuration not stated) | inactive | – |
| COc1cccc(CN2CCc3ccc(NC(=O)CCc4ccc(C)cc4)cc3C2)c1O | active: 39.8 µM | – |
| CCNc1nc(NC(C)C)nc(N(C#N)Cc2ccccc2)n1 | inconclusive: 1.78 µM [inhibitor, partial curve, poor fit] | – |
| Cn1cccc1Cc1nnc(SCC(=O)Nc2ccc(F)cc2)n1-c1ccc(F)cc1 | active: 44.7 µM | – |
| Cc1ccc(S(=O)(=O)n2nc(C)c(S(=O)(=O)N3CCCCC3)c2C)cc1 | active: 44.7 µM | – |
| CCc1ccc(CN(Cc2ccco2)C(=O)c2ccc(C)cc2)cc1 | inactive | – |
| O=C1ON=C(c2ccc([N+](=O)[O-])cc2)/C1=C/c1ccccc1O | active: 79.4 µM | – |
| COc1ccc(C(=O)N2CCc3cc(OC)c(OC)cc3C2c2cccc([N+](=O)[O-])c2)cc1 (configuration not stated) | – | inconclusive: -52% [inhibitor] [at 12.7 µM] |
| O=C(NCCn1c(C(F)(F)F)nc2ccccc21)[C@H]1CCCN1c1nc(CN2CCCCC2)cs1 | inactive | – |
| CC(C)(C)C(C(Oc1ccc(Cl)cc1)n1cncn1)n1nnnc1C(c1cccc(Cl)c1)N1CCCCC1 (configuration not stated) | inconclusive: 39.8 µM [inhibitor, single point] | – |
| COC(=O)N1CCC2(CCN(Cc3ccc(C#N)cc3)CC2)CC1 | – | inactive: 2.85% [at 12.7 µM] |
| COc1ccccc1C(=O)N(Cc1ccco1)Cc1ccccc1F | inactive | – |
